# According to the supplement of paper PMC10338343:
# ± gives the standard deviation. The full ranking holds about 6,600 sequences; the median of “pre-steady-state target cleavage rate” is about 0.07, and the highest 2% start at about 0.72. This is a selection; strong and weak results do not stand in their true shares.
# Test system: MIWI (PIWIL1) piRISC loaded with Kctd7 piRNA (30 nt)
# Assay: pre-steady-state target cleavage rate (min^-1); MIWI and MILI are mouse PIWI proteins and EfPiwi is from a freshwater sponge; tags in brackets are library labels; higher = faster piRNA-guided slicing of the target
# Details: guide: Kctd7 piRNA 5'p-UGUUAAUCUCUCAGAGAAGGUGACAGUGAU; auxiliary factor: 500 nM mouse GTSF1
# In short: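 In HEPES–potassium acetate buffer at 33 °C, […] transcribed, DNA-blocked target RNA library was mixed with 1 nM active affinity-purified piRISC carrying one synthetic guide, with or without 500 nM GTSF1 partner protein, for 0–8 or 0–960 min. Uncleaved targets were sequenced and normalised to depth and to weakly complementary targets; three trials were pooled and k3 was capped at 0.0001 min^-1. The pre-steady-state cleavage rate followed from a burst-and-steady-state fit.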
# 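Also: 1 nM active piRISC with 0.1 nM target library at 33 °C single turnover.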
row,Sequence,pre-steady-state target cleavage rate
1,UUCACUGUCACCUUCUCUGACGAGAUUAACA,0.0334 ± 0.0098
2,UACACUGUCACCUUCCUGAGAGAUUAACA,0.0783 ± 0.023
3,UAGUGUGUCACCUUCUUGAGAGAUUAACA,0.0206 ± 0.0079
4,UACACUGUCACCUACUCUGAGAGAUUAUGA,0.0508 ± 0.02
5,UUCUCUGUCACCUACUCUGAGAGAUUAACA,0.546 ± 0.034
6,UUCACUGUCAGCUUCUCUGAGAGUUUAACA,0.169 ± 0.021
7,UUCACUGUCACCUUCUCUAAGAGAUUAACA,0.433 ± 0.019
8,AUCACACACACCUUCUCUGAGAGAUUUUGA,0.106 ± 0.027
9,UAGUGACAGACCUUCACUGUGAGAUUAACA,0.00717 ± 0.0025
10,UUGACUGUCACCUUCUCUGAGAGAUAUUGA,0.00403 ± 0.003
11,UAGACUGUCACCUUCUCUGAGAGAUCAACA,0.339 ± 0.034
12,UUCACUGUCACCUUCUCUGCGAGAUUAACA,0.399 ± 0.031
13,UUCACUCUCACGUUCUCUGAGAGAUUAACA,0.435 ± 0.029
14,UAGUCUGUCACGUUCUCUGAGAGAAUAACA,0.222 ± 0.034
15,UAGUGACUGUCCUUCUCUGAGAGAUUAAGA,0.0241 ± 0.0089
16,UAGACUGUCACCUUCUCUGUGAGAUUAUCA,0.0862 ± 0.01
17,UAGUCUGUCAGCUUCUCAGAGAGAUUAACA,0.226 ± 0.015
18,UAGUGACAGUGGAUCUCUGAGAGAUUAUACA,< 0.0001
19,UAGUGACAGACCUUCUCUGAGAGAUUAAA,0.0488 ± 0.011
20,UUCACUCUCACCUUCUCAGAGAGAUUAACA,0.41 ± 0.021

row,Sequence,pre-steady-state target cleavage rate
1,AUCAAUGUCACCUUCUCUGAGAGAUUAACA,0.672 ± 0.03
2,UAGUGACACACCUUCUGUGAGAGAUAAACA,0.162 ± 0.024
3,UAGACUGUCAGCUUCUCUGACAGAUUAACA,0.00471 ± 0.0038
4,UUCACUCUCACCUUCUCUGAGAGAUUUUGA,0.062 ± 0.013
5,UAGACUGUCACCUUACUCUGAGAGAUUAACA,0.621 ± 0.045
6,UUCACUGUCACCUUCUCUGAGAUAUUAACA,0.251 ± 0.023
7,UAGUGAGUCACCUUAUCUGAGAGAUUAACA,0.363 ± 0.02
8,UAGUCACACACCUUCUCUGAGAGAUUUUGA,0.0545 ± 0.014
9,UAGACUGUCACCUUCUCUGAGAGUAUUAACA,0.442 ± 0.018
10,AUCAGUGUCACCUUCUCUGAGAGUUUAACA,0.446 ± 0.071
11,UAGUGACAGUCCAUCUCUGAGAGAUUAUGA,< 0.0001
12,AUCACUCUCACCAUCUCUGAGAGAUUAACA,0.473 ± 0.027
13,AUCACUGUCACCUUCUCUCAGACAUUAACA,0.0609 ± 0.0057
14,UAGUCACUCACCUUCUCUGAGAGAUUAUGA,0.0544 ± 0.017
15,UUCACUGUCACCUUCUCUGAGAGAUUUACA,0.418 ± 0.052
16,UAGUGAGUCACCUACUCUGAGAGAUUAACA,0.589 ± 0.039
17,UAGUGAGUCACCAUCACUGAGAGAUUAACA,0.518 ± 0.048
18,AUCACUGUCUCCUUCUCUGAGAGAUAAACA,0.275 ± 0.04
19,UAGAGUGUCACCUUCUCUGAGUGAUUAACA,0.0315 ± 0.0059
20,UAGUGACACACCUUCUCUGAGAGAUUAACU [g2:g22:cont:t1U],0.3 ± 0.037
